Source: PMC12136788
This is one part of the list.

T1: UNK ZnF1-3 (human, UniProt Q9C0B0 31-174)
T1 sequence: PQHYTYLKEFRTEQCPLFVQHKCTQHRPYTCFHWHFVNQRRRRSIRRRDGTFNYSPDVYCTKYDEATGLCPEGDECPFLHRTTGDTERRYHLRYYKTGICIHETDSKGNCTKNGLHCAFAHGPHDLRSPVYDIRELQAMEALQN

B1: chr5:144470944:144470945:+_ENSMUSG00000018001_ENSMUST00000116456|mus_hu|FALSE|FALSE (ssRNA)
RNA: GGGAGUUCUACAGUCCGACGAUCAUCAUUGAAUAACAGACACUCCAGAAAUCAACAGAUGUACAUUAUUUACAUAUUACUAUAUUUACCGCAAAUAGAAAUAUUUUCUAAGAAAAAAAGUCAAUUUGUGGUUUCUGGUCUACCCAACAGAGGAUUGAGCAUCA
B2: chr1:3697355:3697356:-_ENSG00000130764_ENST00000378251|hu_hu|motif|central (ssRNA)
RNA: GGGAGUUCUACAGUCCGACGAUCAUCAUGAGGUCAAGAGAUCAAGACCAUCCUGGUCAAAAUGGUGAAACCCCGUCUCGGCGGAAAAUACAAAAAUUAGCUGAGCUUAGUGGCACACACCUGUAGUCCCAGCUACUUGGGAGGCAACAGAGGAUUGAGCAUCA
B3: chr6:40197388:40197389:+_ENSMUSG00000057716_ENSMUST00000061740|mus_mus|mus_mus_mus_hu_False|98_108 (ssRNA)
RNA: GGGAGUUCUACAGUCCGACGAUCGAGUUGUCAGUUUGGAUGGCACCCACCUCUGUUUGGGUGCUAGCCACUAAGACUGUUAUUUUGGGAUUCAUGGCCUUGAAUAUCAAGAGGGAAAGGAAGAGGAUGGAAAGAGUCAAGAGUCAACAGAGGAUUGAGCAUCA
B4: chrX:102930994:102930995:-_ENSG00000123562_ENST00000441076|hu_mus|motif|central (ssRNA)
RNA: GGGAGUUCUACAGUCCGACGAUCAUAAGCCCUGUUUUACACUGACAGUUUUAAAGAACAUCAAUUAUACCAUGAAAGGACGGAACAGAAGUGUUUACAGAUACCAGACAAUAGUGAGCGGUCAGUAGACCUUCACAGGGCUUUCAACAGAGGAUUGAGCAUCA
B5: chr10:103870385:103870386:-_ENSG00000198728_ENST00000425280|hu_hu|FALSE|FALSE (ssRNA)
RNA: GGGAGUUCUACAGUCCGACGAUCGUCACAGUCGAGGGACACAAAGUUGCUGUGGAAUGCCUCCUUGGGGUGCUUAAGAACAUAGUACAGCUCCGUAGCACCCCCCUCAAAGAUGCUGCGGAAGUAGCGUGGGAUCAGGGUCCGCAACAGAGGAUUGAGCAUCA
B6: 117002743_117002863_279_CDS_ENSMUSG00000020823_ENSMUST00000090433|mouse|control|control (ssRNA)
RNA: GGGAGUUCUACAGUCCGACGAUCCGCAUCUAUAUCCAGCUUGCAGCGCCUCUCGAUGACAUGAAGAGCCCCAUCCUCACUCUUGAACUCGCUCACAGUGUCACUGUCCACGAACAUUGGAAUCAGAGGACAUGUAGGAAACCUCAACAGAGGAUUGAGCAUCA

Target: T1, UNK ZnF1-3
Experiment: nsRBNS (natural sequence RNA bind-n-seq); RBNS binding buffer (assumed for nsRBNS): 25 mM Tris pH 7.5, 150 mM KCl, 3 mM MgCl2, 0.01% Triton X-100, 500 ug/ml BSA, 20 U/ml SUPERase-In, 4 C; UNK is unkempt and MSI1 is Musashi-1; names of the RNAs are library labels; protein concentration not given here; high values mean tight binding

| Binder | binding signal |
| --- | --- |
| B1 | 1.31 enrichment R |
| B2 | 1.28 enrichment R |
| B3 | 1.34 enrichment R |
| B4 | 1.24 enrichment R |
| B5 | 1.09 enrichment R |
| B6 | 1.65 enrichment R |
